This note sets out measurements from the antibiotic and cytotoxicity screens of Wong et al. (2023).

This is one part of the list.

In one experiment the test system is HSkMC. Briefly: cytotoxicity call (relative viability < 0.9). Conditions: 10 µM.
A further experiment concerns HepG2. Briefly: cytotoxicity call (relative viability < 0.9). Conditions: 10 µM.
The test system of another experiment is S. aureus RN4220. The experiment in a line: growth inhibition call (relative growth <= 0.2). The conditions noted are these: 50 µM.

Regarding `O=C1OCCN/C1=C/C(=O)c1ccccc1`, in the experiment on HSkMC, the cytotoxicity call was “inactive”. Besides, the cytotoxicity call with HepG2 was “active”. Further, the growth inhibition call with S. aureus RN4220 is “inactive”.
Consider `O=C(C[C@H]1C[C@@H]2c3cc(NC(=O)Nc4ccc(C(F)(F)F)cc4)ccc3O[C@@H]2[C@@H](CO)O1)NCc1ccc(Cl)cc1`, for which the cytotoxicity call in the experiment with HSkMC and in the experiment with HepG2 was “inactive” in each case. In the experiment with S. aureus RN4220, the growth inhibition call is “inactive”.
For the molecule `Cc1c(C)n2c3c(=O)n(C)c(=O)n(C)c3nc2n1CCO`, the cytotoxicity call in the experiment with HSkMC and in the experiment on HepG2 was “inactive” in each case. Besides, the growth inhibition call in the experiment with S. aureus RN4220 is “inactive”.
With `C[C@H]1CN([C@@H](C)CO)S(=O)(=O)c2ccc(C#CCN(C)C)cc2O[C@@H]1CN(C)Cc1ccccc1F`, the cytotoxicity call in the experiment on HSkMC and in the experiment on HepG2 was “inactive” throughout. The growth inhibition call in the experiment on S. aureus RN4220 is “inactive”.
As to `CC(C)NC(=O)Nc1ccc2c(c1)CC(=O)N([C@@H](C)CO)C[C@@H](C)[C@@H](CN(C)S(=O)(=O)c1cn(C)cn1)O2`, the cytotoxicity call in the experiment on HSkMC and with HepG2 was “inactive” each time. Also, in the experiment with S. aureus RN4220, the growth inhibition call is “inactive”.
In the case of `C[N+]1(C)C2CCC1CC(OC(=O)C(O)c1ccccc1)C2.[Br-]` (stereo unspecified), the cytotoxicity call in the experiment on HSkMC and in the experiment with HepG2 was “inactive” in each case. The growth inhibition call in the experiment with S. aureus RN4220 was “inactive”.
Turning to `C[C@@H]1CCCCO[C@H](CN(C)Cc2ccccc2)[C@@H](C)CN([C@@H](C)CO)C(=O)c2cc(NC(=O)CCC(F)(F)F)ccc2O1`, the cytotoxicity call with HSkMC and in the experiment with HepG2 was “inactive” each time. Also, the growth inhibition call with S. aureus RN4220 was “inactive”.
On to `O=C(C[C@H]1C[C@H]2c3cc(NC(=O)Nc4ccc(C(F)(F)F)cc4)ccc3O[C@H]2[C@@H](CO)O1)NCCc1ccccc1`, for which the cytotoxicity call in the experiment on HSkMC and in the experiment on HepG2 was “inactive” throughout. Further, the growth inhibition call with S. aureus RN4220 is “inactive”.
For the molecule `Cc1noc(C)c1NC(=O)Nc1ccc2c(c1)C(=O)N([C@H](C)CO)C[C@H](C)[C@H](CN(C)C(=O)c1ccccc1)OCCCC[C@H](C)O2`, the cytotoxicity call in the experiment on HSkMC and in the experiment with HepG2 was “inactive” in each case. Further, the growth inhibition call with S. aureus RN4220 was “inactive”.
As to `O=C(NC1CC1)[C@@H]1c2ccccc2C(=O)N(Cc2cc(F)cc(C(F)(F)F)c2)[C@H]1c1ccc(CO)cc1`, the cytotoxicity call with HSkMC and in the experiment on HepG2 was “inactive” each time. Further, the growth inhibition call in the experiment on S. aureus RN4220 is “inactive”.
On to `CCOc1cc(OCC)cc(C(=O)N[C@@H](Cc2ccc(-n3cc(-c4ccc(C(=O)NO)s4)nn3)cc2)C(=O)OC)c1`, for which the cytotoxicity call in the experiment with HSkMC and with HepG2 was “inactive” throughout. The growth inhibition call in the experiment with S. aureus RN4220 is “inactive”.
In the case of `CN1CCC[C@@H](CC2c3ccccc3Sc3ccccc32)C1`, the cytotoxicity call in the experiment on HSkMC was “inactive”. Moreover, in the experiment on HepG2, the cytotoxicity call was “active”. For the same molecule, in the experiment with S. aureus RN4220, the growth inhibition call is “inactive”.
As for `CN1CC(=O)N=C1NC(=O)[C@H]1CCCN(S(=O)(=O)c2ccc3c(c2)oc(=O)n3C)C1`, the cytotoxicity call in the experiment on HSkMC and in the experiment on HepG2 was “inactive” each time. In the experiment with S. aureus RN4220, the growth inhibition call is “inactive”.
Take `C[C@@H]1CN([C@H](C)CO)C(=O)c2ccccc2-c2ccccc2CO[C@@H]1CN(C)Cc1ccc(Cl)c(Cl)c1`: the cytotoxicity call in the experiment with HSkMC and in the experiment on HepG2 was “inactive” in each case. For the same molecule, in the experiment with S. aureus RN4220, the growth inhibition call was “inactive”.
Turning to `C[C@H]1CN([C@@H](C)CO)C(=O)c2cccc(NC(=O)C3CCOCC3)c2O[C@@H]1CN(C)C(=O)Nc1ccc2c(c1)OCO2`, the cytotoxicity call with HSkMC and in the experiment on HepG2 was “inactive” in each case. The growth inhibition call with S. aureus RN4220 is “inactive”.
For the molecule `C[C@@H]1CCCCO[C@@H](CN(C)C(=O)Nc2cccc3ccccc23)[C@@H](C)CN([C@H](C)CO)C(=O)c2cc(NC(=O)CCCCCC(=O)Nc3ccccc3N)ccc2O1`, the cytotoxicity call in the experiment on HSkMC and in the experiment on HepG2 was “inactive” each time. Moreover, the growth inhibition call in the experiment on S. aureus RN4220 is “inactive”.
With `CO[C@H]1CN(C)C(=O)c2cc(NS(=O)(=O)c3cn(C)cn3)ccc2OC[C@@H](C)N(CC2CC2)C[C@H]1C`, the cytotoxicity call with HSkMC and with HepG2 was “inactive” in each case. Besides, in the experiment with S. aureus RN4220, the growth inhibition call was “inactive”.
With `C[C@H](CO)N1C[C@H](C)[C@@H](CN(C)S(=O)(=O)c2ccc(F)cc2)Oc2cc(Br)ccc2S1(=O)=O`, the cytotoxicity call in the experiment on HSkMC and with HepG2 was “inactive” in each case. Also, the growth inhibition call with S. aureus RN4220 is “inactive”.
For `C[C@@H]1CCCCO[C@H](CN(C)S(C)(=O)=O)[C@@H](C)CN([C@@H](C)CO)C(=O)c2cc(NS(C)(=O)=O)ccc2O1`, the cytotoxicity call in the experiment with HSkMC and with HepG2 was “inactive” in each case. For the same molecule, in the experiment with S. aureus RN4220, the growth inhibition call was “inactive”.
Regarding `C[C@@H]1CCCCO[C@@H](CN(C)S(=O)(=O)c2ccc(Cl)cc2)[C@@H](C)CN([C@@H](C)CO)C(=O)c2cc(NC(=O)C3CCCCC3)ccc2O1`, the cytotoxicity call in the experiment with HSkMC and in the experiment on HepG2 was “inactive” each time. Further, in the experiment on S. aureus RN4220, the growth inhibition call was “inactive”.
On to `C[C@@H]1CCCCO[C@H](CN(C)Cc2ccc(C(F)(F)F)cc2)[C@@H](C)CN([C@H](C)CO)C(=O)c2cc(NS(=O)(=O)c3cn(C)cn3)ccc2O1`, for which the cytotoxicity call with HSkMC and with HepG2 was “inactive” each time. In addition, the growth inhibition call with S. aureus RN4220 is “inactive”.
For the molecule `O=C(C[C@H]1CC[C@@H]2[C@H](COC[C@@H](O)CN2C(=O)c2ccccc2)O1)N1CCOCC1`, the cytotoxicity call in the experiment with HSkMC and in the experiment with HepG2 was “inactive” each time. The growth inhibition call in the experiment with S. aureus RN4220 is “inactive”.
In the case of `C[C@H]1CN([C@@H](C)CO)C(=O)c2cc(NC(=O)CCN3CCOCC3)ccc2O[C@H]1CN(C)CC1CCCCC1`, the cytotoxicity call in the experiment on HSkMC and in the experiment on HepG2 was “inactive” throughout. Moreover, the growth inhibition call in the experiment on S. aureus RN4220 is “inactive”.
Take `C[C@@H]1CN([C@H](C)CO)S(=O)(=O)c2ccc(Br)cc2O[C@H]1CN(C)C(=O)Cc1ccccn1`: the cytotoxicity call in the experiment on HSkMC and with HepG2 was “inactive” throughout. Further, the growth inhibition call with S. aureus RN4220 was “inactive”.
In the case of `COc1ccc(CN(C)C[C@H]2Oc3c(NC(=O)Nc4ccc(C(F)(F)F)cc4)cccc3C(=O)N([C@H](C)CO)C[C@H]2C)cc1`, the cytotoxicity call with HSkMC and in the experiment on HepG2 was “inactive” in each case. In addition, the growth inhibition call in the experiment on S. aureus RN4220 was “inactive”.
In the case of `CN(C)CCCCNC(=O)[C@H]1C[C@H]2C(=O)N[C@@H](CCCCN)C(=O)N2[C@H]1c1cccc(OCCO)c1`, the cytotoxicity call in the experiment on HSkMC and in the experiment on HepG2 was “inactive” each time. The growth inhibition call in the experiment with S. aureus RN4220 was “inactive”.
Turning to `Cc1ccc(S(=O)(=O)N(C)C[C@H]2Oc3ncc(Br)cc3C(=O)N([C@@H](C)CO)C[C@@H]2C)cc1`, the cytotoxicity call in the experiment on HSkMC (human skeletal muscle cells) and in the experiment with HepG2 was “inactive” in each case. Also, the growth inhibition call in the experiment on S. aureus RN4220 is “inactive”.
